Results: PubChem BioAssay AID360 (National Center for Advancing Translational Sciences (NCATS), 2006)
Hit rate of the full screen: of about 48,000 compounds, about 550 (1.1%) were called active. Inconclusive results (about 4%) are left out. No stated cut-off is given here; in the data, active means potency below about 15 µM; inconclusive means mostly about 16 µM to 33 µM; inactive means weaker than that. The list shows a part of the results.

Biological target: Lysosomal acid glucosylceramidase (Homo sapiens) (UniProt P04062)
Assay: Glucocerebrosidase;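 further: the screen sought inhibitors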
Settings: purified enzyme, resorufin glucoside fluorescence (screen aimed at inhibitors), 20 min; series mostly up to 77 µM
Procedure, shortened: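 Wild-type enzyme at 0.2 nM final in 50mM citric acid/KH2PO4, 10mM sodium taurocholate, 0.01% tween-20, pH 5.9, with resorufin beta-D-glucopyranoside at 30 uM final. Compounds titrated, 20 min at RT, red fluorescence read; AC50 from titration.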
Potency means the concentration at half of the fitted maximal effect.

UniProt P04062, sequence (P04062 whole entry, looked up): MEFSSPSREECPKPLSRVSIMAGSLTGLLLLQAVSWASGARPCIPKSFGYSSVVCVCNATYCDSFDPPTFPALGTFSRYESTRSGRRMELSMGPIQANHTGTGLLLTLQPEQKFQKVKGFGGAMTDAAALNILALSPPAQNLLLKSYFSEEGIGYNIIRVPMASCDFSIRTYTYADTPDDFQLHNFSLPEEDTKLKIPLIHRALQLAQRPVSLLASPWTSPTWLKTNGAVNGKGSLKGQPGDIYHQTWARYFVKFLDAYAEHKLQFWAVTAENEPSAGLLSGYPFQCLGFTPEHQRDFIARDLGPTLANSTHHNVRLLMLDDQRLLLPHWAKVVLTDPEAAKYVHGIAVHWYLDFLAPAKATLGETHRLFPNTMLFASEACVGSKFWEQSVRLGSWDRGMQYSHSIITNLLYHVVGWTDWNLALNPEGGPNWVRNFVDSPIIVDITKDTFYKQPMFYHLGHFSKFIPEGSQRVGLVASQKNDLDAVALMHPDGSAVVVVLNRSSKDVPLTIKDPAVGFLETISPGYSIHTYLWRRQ

Potency, inactive:
Cc1cnc(SCCc2ccncc2)nc1C > 76.9 µM
COC(=O)C1=C(C)N(Cc2ccco2)C(=O)C1 > 76.9 µM
Cc1c(N=Cc2c(O)n(Cc3ccco3)c(=O)c3ccccc23)c(=O)n(-c2ccccc2)n1C > 76.9 µM
O=C1NCC(CN(c2ccccc2)c2ccccc2)O1 (configuration not stated) > 76.9 µM
N#Cc1c(NC(=O)Cn2cnc3ccccc3c2=O)oc(-c2ccccc2)c1-c1ccccc1 > 76.9 µM
COc1cccc(C2=NOC(C(=O)N3CCOCC3)C2)c1 (configuration not stated) > 76.9 µM
CCOC(=O)/C(C(N)=NCCO)=C(/O)c1ccccc1 > 76.9 µM
O=S1(=O)C=CC(Sc2nc3ccccc3[nH]2)C1 (configuration not stated) > 76.9 µM
COCc1nnc(NC(=O)CCc2ccccc2)s1 > 76.9 µM
COc1cc2c(C(=O)NCc3ccc4c(c3)OCO4)cn(CC(C)C)c(=O)c2cc1OC > 76.9 µM
O=C(CSc1nnc2c(n1)[nH]c1ccc(F)cc12)OCc1ccccc1 > 76.9 µM
O=C(C(Cc1ccccc1)N1C(=O)C2C3C=CC(C3)C2C1=O)N1CCCCCC1 (configuration not stated) > 76.9 µM
CCn1c(C(C)NC(=O)c2ccc(OC)c(OC)c2)nc2ccccc21 (configuration not stated) > 76.9 µM
COC(=O)c1ccc2[nH]c(C)c(CN3CCCC3)c(=O)c2c1 > 76.9 µM
Cn1cccc1CNC(=O)Nc1ccc(Cl)c(Cl)c1 > 76.9 µM
CCOc1ccccc1NC(=O)CCS(=O)(=O)c1cccc2nonc12 > 76.9 µM
O=c1[nH]cnc2scc(-c3ccc(F)cc3)c12 > 76.9 µM
COc1ccc(-c2noc(CSc3nc(N)c(-c4ccccc4)c(=O)[nH]3)n2)cc1OC > 76.9 µM
Cc1nc2ccccn2c1C(=O)NCc1ccc2c(c1)OCO2 > 76.9 µM
CCC(=O)N1CCc2cc(S(=O)(=O)CCC(=O)NCc3cccs3)ccc21 > 76.9 µM
COC1CCCCC1NS(=O)(=O)c1ccccc1 (configuration not stated) > 76.9 µM
CCCOC(=O)c1ccc(Oc2c(-c3ccc(O)cc3O)n[nH]c2C)cc1
O=C1OC(c2ccc(Br)cc2)=N/C1=C\N1CCCCC1 > 76.9 µM
Cc1nn(-c2ccccn2)c2c1-c1nc(N)ncc1CC2 > 76.9 µM
O=C1C(Cl)=C(NCC2CCCO2)C(=O)N1c1ccccc1 (configuration not stated) > 76.9 µM
CCOc1cc(-c2noc(CCCC(N)=O)n2)cc(Br)c1OC > 76.9 µM
CCCn1c(SCC(=O)NCc2ccco2)nc2c1c(=O)n(C)c(=O)n2C > 76.9 µM
COc1ccc(N2C(=O)CCC(C(=O)N3CCCCC3)C2c2ccc(F)cc2)cc1 (configuration not stated) > 76.9 µM
COc1ccc(CC(=O)OCc2nnc(C3COc4ccccc4O3)o2)cc1OC (configuration not stated) > 76.9 µM
CCN(CCCCN1C(=O)c2ccccc2C1=O)c1ccc2c(c1)C(=O)N(C)C2=O > 76.9 µM
CCn1c(SCC(=O)Nc2cccc(NC(=O)c3cccs3)c2)nnc1-c1ccncc1 > 76.9 µM
Cc1ccccc1-n1c(SCC(=O)N2CCN(c3ccccc3)CC2)nnc1-c1ccncc1 > 76.9 µM
Nn1c(COc2ccccc2)nnc1SCc1cc(=O)[nH]c2ccccc12 > 76.9 µM
COc1ccc(S(=O)(=O)Nc2ccc(C)cc2)cc1OC > 76.9 µM
O=C1CC(C(=O)NCc2ccccc2)N=C(N2CCCCC2)N1 (configuration not stated) > 76.9 µM
O=C(CCN1C(=O)COc2ccccc21)NCCN1CCN(c2ccccc2F)CC1 > 76.9 µM
O=C(NCc1ccccn1)C1CCN(S(=O)(=O)c2ccccc2)CC1 > 76.9 µM
Cc1cccc(-n2c(N)cc(=O)[nH]c2=S)c1C > 76.9 µM
CCCCOc1nc(N)nc(-c2ccccc2)n1 > 76.9 µM
CCC(c1nnc(SCC(=O)Nc2nnc(-c3ccccc3)o2)o1)N(C)C (configuration not stated) > 76.9 µM
O=S(=O)(Nc1ccncc1)c1ccccc1 > 76.9 µM
Cc1ccc(Cn2ccc(NC(=O)c3cc(-c4ccco4)on3)n2)cc1 > 76.9 µM
CCOC(=O)c1c(NC(=O)c2noc3c2CCCC3)sc(C)c1C > 76.9 µM
CCOC(=O)CSc1nnc(CNC(=O)c2ccc(OC)cc2OC)n1C > 76.9 µM
CC(=O)c1cn(CC(=O)NCc2ccc3c(c2)OCO3)c2ccccc12 > 76.9 µM
COc1ccccc1C(=O)N1CCN(C(=O)COc2cccc(C)c2)CC1 > 76.9 µM
COc1ccc2c(c1)CCC(C)N2S(=O)(=O)c1ccc(C2CNC(=O)C2)cc1 (configuration not stated) > 76.9 µM
Cc1cc(NC(=O)CSc2ncnc3sc4c(c23)CCC(C)C4)no1 (configuration not stated) > 76.9 µM
COc1ccc(C(CC(=O)O)NC(=O)c2cccs2)cc1 (configuration not stated) > 76.9 µM
Cc1ccccc1OCC(=O)N(Cc1nc(-c2ccccc2)no1)C(C)C > 76.9 µM
c1ccc(Cn2nnc3c(N4CCCC4)ncnc32)cc1 > 76.9 µM
CCOC(=O)COc1ccc(S(=O)(=O)NCc2ccncc2)cc1 > 76.9 µM
Cc1ccc(CN2C(=O)CCC2C(=O)N2CCN(c3ccc(F)cc3)CC2)cc1 (configuration not stated) > 76.9 µM
CC(=O)COc1cc(C)cc2oc(=O)c(C)c(C)c12 > 76.9 µM
O=C(OCc1nc2ccccc2s1)C1CCN(S(=O)(=O)c2cccs2)CC1 > 76.9 µM
CCOc1ccc(CCNC(=O)Cn2c(-c3nonc3N)nc3ccccc32)cc1OCC > 76.9 µM
COc1ccccc1NC(=O)c1nnn(CC(=O)Nc2ccccc2)c1N > 76.9 µM
COCCCNC(=O)C1CCN(C(=O)Nc2ccc(Cl)cc2)CC1 > 76.9 µM
O=C(c1ccco1)N1CCN(C(=O)C2CCCO2)CC1 (configuration not stated) > 76.9 µM
Cn1c(SCC(=O)N2CCc3ccccc3C2)nnc1-c1cccs1 > 76.9 µM
CN(C(=O)COC(=O)c1ccc2c(c1)OCO2)C1CCS(=O)(=O)C1 (configuration not stated) > 76.9 µM
COc1ccc(N(Cc2cc3ccc(C)cc3[nH]c2=O)C(C)=O)cc1 > 76.9 µM
COc1cccc(OC)c1OCCOCCn1cnc2ccccc2c1=O > 76.9 µM
Cc1ccc(-c2noc(CCC(N)=O)n2)cc1 > 76.9 µM
O=C(c1ccc(Cl)cc1)N(Cc1cccs1)C1CCS(=O)(=O)C1 (configuration not stated) > 76.9 µM
Cc1occc1C(=O)Nc1cc(C(F)(F)F)ccc1Cl > 76.9 µM
CCOC(=O)c1cnn(-c2nc(C)nc3sc4c(c23)CCC4)c1N > 76.9 µM
COCCN(CCOC)C(=O)c1sc2nc(-c3ccccc3)cn2c1C > 76.9 µM
CCOC(=O)c1ccc2c(c1)n(CCO)c(C)[n+]2CC > 76.9 µM
COc1ccc(C(CNC(=O)Cc2cc(OC)c(OC)c(OC)c2)N2CCCC2)cc1 (configuration not stated) > 76.9 µM
c1ccc2c(-c3ccncc3)c[nH]c2c1 > 76.9 µM
COc1cccc(-c2nnc3sc(-c4ccccn4)nn23)c1 > 76.9 µM
CCOC(=O)C(NC(=O)Nc1ccc(F)cc1)(OCC)C(F)(F)F (configuration not stated) > 76.9 µM
O=C(COC(=O)CCOc1ccccc1)NCc1ccco1 > 76.9 µM
Cc1cc(C)n(-c2nnc(C)n2NS(=O)(=O)c2ccc(F)cc2)n1 > 76.9 µM
COCCCNC(=O)COc1ccc(S(=O)(=O)Nc2ccccc2)cc1 > 76.9 µM
COc1ccccc1N1CC(C(=O)OC(C)C(=O)N2CCCc3ccccc32)CC1=O (configuration not stated) > 76.9 µM
O=C1CCCC2=C1C(c1ccc(Br)cc1)c1c([nH]c(=S)[nH]c1=O)N2 (configuration not stated)
CCOC(=O)Nc1cc2c(C)cc(=O)oc2cc1C > 76.9 µM
COCCNC(=O)c1ccccc1-c1ccccc1C(=O)O
CN(C)CCCN1C(=O)C(=O)/C(=C(/O)c2ccc3c(c2)OCCO3)C1c1ccco1 (configuration not stated) > 76.9 µM
CC(C)Cc1nnc(NC(=O)c2ccncc2)s1 > 76.9 µM
O=C1c2ccccc2C2(c3ccccc3)NCCN12 (configuration not stated) > 76.9 µM
Cc1ccc(S(=O)(=O)Nc2nc3ccccc3nc2NCc2ccco2)cc1C > 76.9 µM
CCOc1ccccc1N(CC(=O)Nc1ccccc1C(=O)NCc1ccco1)S(C)(=O)=O > 76.9 µM
Cc1ccc(S(=O)(=O)c2c(N)n(CCN3CCOCC3)c3nc4ccccc4nc23)cc1C
COc1ccc(Oc2c(-c3ccc(O)cc3O)n[nH]c2C)cc1 > 76.9 µM
CN(c1ccc(C(=O)NCc2cccnc2)cc1)S(C)(=O)=O > 76.9 µM
COc1ccccc1Nc1nc(C)cc(C)c1C(N)=O > 76.9 µM
O=C1CCC(=O)N1OCCOc1ccc2c(c1)CCC2 > 76.9 µM
Cc1ccc(NC(=O)CN2C(=O)NC(Cc3ccccc3)C2=O)cc1 (configuration not stated) > 76.9 µM
NC(=O)C1CC(=O)N(c2ccc(OCC(=O)Nc3cccc(C(F)(F)F)c3)cc2)C1 (configuration not stated) > 76.9 µM
